# “And” between values parts separate entries of the source, which are not always exact repeats. Equal entries are not always repeated. The list shows a part of the results. These are further read-outs of the screen, such as a control signal, another cell line or another target. No call is given for them. Compounds called inactive in the main read-out are mostly missing here. The note in brackets gives the kind of curve behind each potency; many fits are weak.
# Legend:
# [1] = qHTS Assay for Lipid Storage Modulators (AID 1519); details: Drosophila S3 cells, BODIPY lipid droplet/cell ratio, laser cytometry, cells loaded with oleic acid
# In short: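 Cells seeded at 5,000 per well were treated with compounds over a concentration series and loaded with oleic acid (400 uM, as added). Lipid droplet fluorescence (488 nm excitation, 500-530 nm channel) was read by laser-scanning cytometry and normalized to 20 uM Triacsin C.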
# [2] = qHTS for identification of novel therapeutic agents for treatment of microphthalmiaassociated transcription factor (MiT) renal cell carcinoma (RCC) (AID 1963991); details: CellTiter-Glo, 48 h; for z-score: stronger effect = lower value;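 as to z-score: curves scaled with 100% = DMSO viability and 0% = empty wells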
# In short: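 UOK109/UOK124/UOK145 (TFE3 fusions, three partners); 500 cells/well; MIPE v4.0, 1912 cpds, 11 conc.; 48 h, 37 C; CellTiter-Glo, 15 min RT; lum. Norm.: DMSO 100%, empty 0%.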
# [3] = qHTS Assay for Modulators of Human Peripheral Myelin Protein 22 (PMP22) Expression/Activity (AID 1967); details: Cell-based PMP22 reporter, dual-color luciferase ratio
# In short: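 Luminescence ratio of Pmp22 promoter-driven green luciferase to EF-alpha-driven red luciferase, in engineered mouse MSC80 Schwann cells, served as read-out. Compounds were incubated 24h; untreated cells defined 0% Activity; curves were classified by r2, magnitude and activity.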
# [4] = qHTS Assay for Inhibitors of PDE-IV (AID 607); details: HEK293 ACTOne CNG channel cells, membrane potential fluorescence; measured here: parental cell counter-screen;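 also: parental cells stimulated with forskolin 10 µM plus RO 20-1724 100 µM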
# In short: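 The readout is membrane depolarisation from a cAMP-sensing CNG channel, detected with a potential dye at ex 535/em 590. Cells were HEK293-derived (endogenous PDE-IV) at 1000 cells/well, titrated up to 22.9 uM final.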
# [5] = qHTS Validation Assay to Find Inhibitors of Chronic Active B-Cell Receptor Signaling (AID 485345); details: ABC-DLBCL cells, chronic BCR signaling reporter
# In short: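 TMD8 ABC-DLBCL cells with dox-inducible green luciferase–IκBα fusion and red native luciferase; compounds 46 uM–3 nM, 4 h at 37C with doxycycline in 0.5% FBS IMDM. Green/red ratio normalized to basal and 10 uM MG-132.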
# [6] = measured here: cell count channel max response
# [7] = measured here: lipid (BODIPY) channel AC50
# [8] = measured here: lipid channel max response
# [9] = TFE3-RCC UOK109 viability, measured here: UOK109 Z-AUC
# [10] = TFE3-RCC viability, measured here: UOK124 Z-AUC
# [11] = TFE3-RCC viability, measured here: UOK145 Z-AUC
# [12] = TFE3-RCC viability, measured here: UOK145 cell viability
# [13] = measured here: cell number channel AC50
# [14] = measured here: red reporter channel AC50, EF-alpha promoter control reporter in MSC80 mouse Schwann cells
# [15] = measured here: green reporter channel AC50, mouse Pmp22 promoter in mouse Schwann cells
# [16] = TFE3-RCC viability, measured here: UOK124 cell viability
# [17] = measured here: CBG/CBR ratio read-out
# Tags tell the direction and shape of the fitted curve.
smiles,measurement,setting,value
O=C(O)C1CCCN(CCC=C(c2ccccc2)c2ccccc2)C1 (stereo unspecified),max response,[1]; [6],48%
same,AC50,[1]; [7],"50.1 µM [rising, partial curve, poor fit]"
same,max response,[1]; [8],49.2%
same,z-score,[2]; [9],0.917
same,z-score,[2]; [10],0.51
same,z-score,[2]; [11],0.614
same,AC50,[2]; [12],"29.6 µM [falling, single point]"
FC(F)(F)c1ccccc1-n1ccnc1,max response,[1]; [6],89.5% and 30.5%
same,AC50,[1]; [13],"4.47 µM [rising, partial curve]"
same,max response,[1]; [8],122% and 14.7%
same,AC50,[3]; [14],"95.3 µM [falling, single point]"
CCCn1c(=O)c2[nH]c(-c3ccc(OCC(=O)NCCN)cc3)nc2n(CCC)c1=O,max response,[1]; [6],-19.7%
same,AC50,[1]; [7],"0.0355 µM [falling, full curve, poor fit]"
same,max response,[1]; [8],-19.3%
same,AC50,[3]; [14],"16.9 µM [rising, partial curve, poor fit]"
NC(=O)CC[C@H](N)C(=O)O,max response,[1]; [6],26.5% and 38%
same,AC50,[1]; [7],"22.4 µM [rising, partial curve, poor fit]"
same,max response,[1]; [8],44.9% and 37.1%
same,AC50,[3]; [14],"84.9 µM [falling, single point]"
CNCCC(Oc1ccccc1OC)c1ccccc1 (stereo unspecified),max response,[1]; [6],-13.8%
same,AC50,[1]; [13],"22.4 µM [falling, single point]"
same,max response,[1]; [8],-20.2%
same,AC50,[3]; [15],"67.5 µM [falling, partial curve]"
same,AC50,[3]; [14],"84.9 µM [falling, partial curve]"
c1coc(CNc2ncnc3nc[nH]c23)c1,AC50,[4],"5.01 µM [rising, partial curve, poor fit]"
same,max response,[1]; [6],31.9%
same,AC50,[1]; [7],"2.51 µM [rising, full curve, poor fit]"
same,max response,[1]; [8],50.7%
same,z-score,[2]; [9],0.851
same,z-score,[2]; [10],0.427
same,AC50,[2]; [16],"0.00118 µM [falling, full curve, poor fit]"
same,z-score,[2]; [11],0.0465
CN(C)CC/C=C1\c2ccccc2COc2ccccc21,max response,[1]; [6],24.5%
same,AC50,[1]; [7],"35.5 µM [rising, single point]"
same,max response,[1]; [8],31.4%
same,AC50,[3]; [15],"84.9 µM [falling, single point]"
same,AC50,[3]; [14],"84.9 µM [falling, single point]"
O=C(OCCN1CCCCC1)c1c[nH]c2ccccc12,max response,[1]; [6],29.5%
same,AC50,[1]; [7],"14.1 µM [rising, partial curve, poor fit]"
same,max response,[1]; [8],40.3%
same,AC50,[3]; [14],"4.26 µM [rising, full curve]"
COc1ccccc1N1CCN(CCCCNC(=O)c2ccc3ccccc3c2)CC1,max response,[1]; [6],56.3%
same,AC50,[1]; [13],"0.00447 µM [rising, full curve, poor fit]"
same,max response,[1]; [8],59.6%
same,AC50,[3]; [15],"42.6 µM [falling, full curve]"
same,AC50,[3]; [14],"37.9 µM [falling, partial curve]"
CCOC(=O)C1=C(C)NC(C)=C(C(=O)OC)C1c1cccc([N+](=O)[O-])c1 (stereo unspecified),max response,[1]; [6],20.8%
same,AC50,[1]; [7],"3.98 µM [rising, partial curve, poor fit]"
same,max response,[1]; [8],30.6%
same,AC50,[3]; [15],"95.3 µM [falling, single point]"
same,AC50,[3]; [14],"84.9 µM [falling, partial curve, poor fit]"
Cc1nc2ccccn2c(=O)c1CCN1CCC(C(=O)c2ccc(F)cc2)CC1,max response,[1]; [6],43.5%
same,AC50,[1]; [7],"2.82 µM [falling, full curve, poor fit]"
same,max response,[1]; [8],45.1%
same,AC50,[3]; [15],"75.7 µM [falling, partial curve]"
same,AC50,[3]; [14],"75.7 µM [falling, single point]"
CC(=O)[C@H]1CC[C@H]2[C@@H]3CCC4=CC(=O)CC[C@]4(C)[C@H]3CC[C@]12C,max response,[1]; [6],79.2%
same,AC50,[1]; [7],"12.6 µM [rising, partial curve]"
same,max response,[1]; [8],124%
same,AC50,[5]; [17],"16.4 µM [falling, partial curve]"
same,z-score,[2]; [9],1.13
same,z-score,[2]; [10],0.232
same,AC50,[2]; [16],"18.7 µM [falling, partial curve, poor fit]"
same,z-score,[2]; [11],-2.84
same,AC50,[2]; [12],"4.18 µM [falling, full curve]"
N#C/C(=C\c1ccc(O)c(O)c1)C(=O)NCCCc1ccccc1,max response,[1]; [6],36.9% and -35.7%
same,AC50,[1]; [13],"14.1 µM [rising, partial curve, poor fit] and 25.1 µM [falling, partial curve, poor fit]"
same,max response,[1]; [8],7.21% and -53%
same,AC50,[3]; [14],"19 µM [falling, full curve]"
same,AC50,[5]; [17],"9.2 µM [falling, partial curve]"
same,AC50,[5]; measured here: CBR control luciferase (viability counter),"14.6 µM [falling, partial curve]"
CC(C(=O)O)c1cccc(C(=O)c2ccccc2)c1 (stereo unspecified),max response,[1]; [6],23.6% and 52.5%
same,AC50,[1]; [7],"39.8 µM [rising, single point]"
same,max response,[1]; [8],39.2% and 56.4%
same,AC50,[3]; [15],"26.9 µM [falling, full curve]"
CN1C2CCC1CC(OC(c1ccccc1)c1ccccc1)C2 (stereo unspecified),max response,[1]; [6],21.1%
same,AC50,[1]; [7],"0.631 µM [rising, full curve, poor fit]"
same,max response,[1]; [8],26.7%
same,AC50,[3]; [15],"42.6 µM [falling, partial curve]"
same,AC50,[3]; [14],"37.9 µM [falling, full curve]"
COc1[nH]c2ccc(F)cc2c1C(=O)OCC1CCN(CCNS(C)(=O)=O)CC1,max response,[1]; [6],-6.88% and -36.5%
same,AC50,[1]; [7],"1.41 µM [falling, full curve, poor fit]"
same,max response,[1]; [8],8.12% and -38.9%
same,AC50,[3]; [14],"95.3 µM [falling, single point]"
CCN(CC)CCOc1ccc(Cc2ccccc2)cc1,AC50,[4],"15.8 µM [rising, single point]"
same,max response,[1]; [6],26.1%
same,AC50,[1]; [7],"39.8 µM [rising, single point]"
same,max response,[1]; [8],37.5%
same,z-score,[2]; [9],0.834
same,z-score,[2]; [10],0.552
same,z-score,[2]; [11],0.684

# Source: PubChem BioAssay (NCATS)
